Experimental data from the supplement of paper PMC9151546.
Most values come without repeats; read them as rough.

Key:
[1] = system: CHO-K1; assay: hypodiploid nuclei frequency (% of nucleated events); higher = more hypodiploid events (aneugenic)
[2] = system: CHO-K1; assay: relative survival (nuclei to bead ratio vs DMSO control) (% of vehicle control); higher = more surviving cells
[3] = system: CHO-K1; assay: micronucleus frequency (% of nucleated events); higher = more micronuclei (genotoxic)
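Wherever hypodiploid nuclei frequency (% of nucleated events) is given: hypodiploid nuclei gated on a flow cytometer with 488 nm excitation after SYTOX Green staining, cultures at 37 °C, positive controls vinblastine without S9 and cyclophosphamide with S9.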
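Wherever micronucleus frequency (% of nucleated events) is given: cells lysed with nuclei stained by SYTOX Green, then micronucleus-gated events counted against nucleated events by flow cytometry with 488 nm excitation.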
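Wherever relative survival (nuclei to bead ratio vs DMSO control) is given: Lysed-cell nuclei stained with SYTOX Green and counted against counting beads by flow cytometry at 488 nm excitation, with vinblastine (no S9) and cyclophosphamide (plus S9) as positive controls.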

C[C@]12CC[C@@H]3c4ccc(O)cc4CC[C@H]3[C@@H]1CC[C@@H]2O [17beta-Estradiol]
Details | hypodiploid nuclei frequency, [1] [%] | micronucleus frequency, [3] [%] | relative survival, [2]
concentration: 4.5 (µM), S9 metabolic activation: with S9, exposure time: 3-4 hours | 0.1 | 1.64 | 188
concentration: 4.5 (µM), S9 metabolic activation: without S9, exposure time: 24 hours | 0.9 | 1.62 | 122
concentration: 5.63 (µM), S9 metabolic activation: with S9, exposure time: 3-4 hours | 0.24 | 1.48 | 159
concentration: 5.63 (µM), S9 metabolic activation: without S9, exposure time: 24 hours | 1 | 2.44 | 104
concentration: 7.04 (µM), S9 metabolic activation: with S9, exposure time: 3-4 hours | 0.24 | 1.36 | 138
concentration: 7.04 (µM), S9 metabolic activation: without S9, exposure time: 24 hours | 1.24 | 1.98 | 96.7
concentration: 8.8 (µM), S9 metabolic activation: with S9, exposure time: 3-4 hours | 0.24 | 1.4 | 128
concentration: 8.8 (µM), S9 metabolic activation: without S9, exposure time: 24 hours | 1.1 | 1.94 | 99.5
concentration: 11 (µM), S9 metabolic activation: with S9, exposure time: 3-4 hours | 0.18 | 1.14 | 137
concentration: 11 (µM), S9 metabolic activation: without S9, exposure time: 24 hours | 1.36 | 3.48 | 85.6
concentration: 13.7 (µM), S9 metabolic activation: with S9, exposure time: 3-4 hours | 0.16 | 1.16 | 151
concentration: 13.7 (µM), S9 metabolic activation: without S9, exposure time: 24 hours | 1.96 | 3.38 | 87
concentration: 17.2 (µM), S9 metabolic activation: with S9, exposure time: 3-4 hours | 0.18 | 1.68 | 118
concentration: 17.2 (µM), S9 metabolic activation: without S9, exposure time: 24 hours | 3.14 | 5.74 | 89.3
concentration: 21.5 (µM), S9 metabolic activation: with S9, exposure time: 3-4 hours | 0.16 | 1.68 | 99.8
concentration: 21.5 (µM), S9 metabolic activation: without S9, exposure time: 24 hours | 5.26 | 8.82 | 102
concentration: 26.8 (µM), S9 metabolic activation: with S9, exposure time: 3-4 hours | 0.16 | 1.44 | 179
concentration: 26.8 (µM), S9 metabolic activation: without S9, exposure time: 24 hours | 17.3 | 12.6 | 60.9
concentration: 33.6 (µM), S9 metabolic activation: with S9, exposure time: 3-4 hours | 0.24 | 1.68 | 151
concentration: 33.6 (µM), S9 metabolic activation: without S9, exposure time: 24 hours | 17.2 | 15.4 | 87
concentration: 41.9 (µM), S9 metabolic activation: with S9, exposure time: 3-4 hours | 0.14 | 1.56 | 143
concentration: 41.9 (µM), S9 metabolic activation: without S9, exposure time: 24 hours | 25.2 | 23 | 65.1
concentration: 52.4 (µM), S9 metabolic activation: with S9, exposure time: 3-4 hours | 0.36 | 1 | 109
concentration: 52.4 (µM), S9 metabolic activation: without S9, exposure time: 24 hours | 29.3 | 27.4 | 48.8
concentration: 65.5 (µM), S9 metabolic activation: with S9, exposure time: 3-4 hours | 0.38 | 1.32 | 108
concentration: 65.5 (µM), S9 metabolic activation: without S9, exposure time: 24 hours | – | – | 39.5
concentration: 81.9 (µM), S9 metabolic activation: with S9, exposure time: 3-4 hours | 0.42 | 1.2 | 86.2
concentration: 81.9 (µM), S9 metabolic activation: without S9, exposure time: 24 hours | – | – | 33.7
concentration: 102 (µM), S9 metabolic activation: with S9, exposure time: 3-4 hours | 0.28 | 1.74 | 83.2
concentration: 102 (µM), S9 metabolic activation: without S9, exposure time: 24 hours | – | – | 36.9
concentration: 128 (µM), S9 metabolic activation: with S9, exposure time: 3-4 hours | 0.26 | 1.84 | 86.2
concentration: 128 (µM), S9 metabolic activation: without S9, exposure time: 24 hours | – | – | 34.4
concentration: 160 (µM), S9 metabolic activation: with S9, exposure time: 3-4 hours | 0.26 | 1.44 | 86
concentration: 160 (µM), S9 metabolic activation: without S9, exposure time: 24 hours | – | – | 33.4
concentration: 200 (µM), S9 metabolic activation: with S9, exposure time: 3-4 hours | 0.18 | 1.7 | 104
concentration: 200 (µM), S9 metabolic activation: without S9, exposure time: 24 hours | – | – | 31.2

O=NN(c1ccccc1)c1ccccc1 [N-Nitrosodiphenylamine]
Details | hypodiploid nuclei frequency, [1] [%] | micronucleus frequency, [3] [%] | relative survival, [2]
concentration: 4.5 (µM), S9 metabolic activation: with S9, exposure time: 3-4 hours | 0.3 | 1.18 | 92
concentration: 4.5 (µM), S9 metabolic activation: without S9, exposure time: 24 hours | 0.92 | 1.52 | 90.6
concentration: 5.63 (µM), S9 metabolic activation: with S9, exposure time: 3-4 hours | 0.22 | 1.34 | 62.7
concentration: 5.63 (µM), S9 metabolic activation: without S9, exposure time: 24 hours | 1.54 | 1.16 | 118
concentration: 7.04 (µM), S9 metabolic activation: with S9, exposure time: 3-4 hours | 0.2 | 1.12 | 66
concentration: 7.04 (µM), S9 metabolic activation: without S9, exposure time: 24 hours | 0.9 | 1.44 | 90.6
concentration: 8.8 (µM), S9 metabolic activation: with S9, exposure time: 3-4 hours | 0.26 | 1.52 | 84.4
concentration: 8.8 (µM), S9 metabolic activation: without S9, exposure time: 24 hours | 0.74 | 1.36 | 93.6
concentration: 11 (µM), S9 metabolic activation: with S9, exposure time: 3-4 hours | 0.12 | 1.46 | 80.5
concentration: 11 (µM), S9 metabolic activation: without S9, exposure time: 24 hours | 0.76 | 1.2 | 83.5
concentration: 13.7 (µM), S9 metabolic activation: with S9, exposure time: 3-4 hours | 0.34 | 1.6 | 83.8
concentration: 13.7 (µM), S9 metabolic activation: without S9, exposure time: 24 hours | 0.78 | 1.28 | 82.4
concentration: 17.2 (µM), S9 metabolic activation: with S9, exposure time: 3-4 hours | 0.1 | 2.04 | 79.7
concentration: 17.2 (µM), S9 metabolic activation: without S9, exposure time: 24 hours | 1.82 | 1.02 | 89
concentration: 21.5 (µM), S9 metabolic activation: with S9, exposure time: 3-4 hours | 0.28 | 1.64 | 110
concentration: 21.5 (µM), S9 metabolic activation: without S9, exposure time: 24 hours | 0.88 | 1.12 | 88.1
concentration: 26.8 (µM), S9 metabolic activation: with S9, exposure time: 3-4 hours | 0.26 | 1.5 | 80.5
concentration: 26.8 (µM), S9 metabolic activation: without S9, exposure time: 24 hours | 1.26 | 2.16 | 101
concentration: 33.6 (µM), S9 metabolic activation: with S9, exposure time: 3-4 hours | 0.24 | 1.4 | 103
concentration: 33.6 (µM), S9 metabolic activation: without S9, exposure time: 24 hours | 3.16 | 1.48 | 86
concentration: 41.9 (µM), S9 metabolic activation: with S9, exposure time: 3-4 hours | 0.2 | 1.32 | 70.3
concentration: 41.9 (µM), S9 metabolic activation: without S9, exposure time: 24 hours | 1.24 | 1.92 | 102
concentration: 52.4 (µM), S9 metabolic activation: with S9, exposure time: 3-4 hours | 0.16 | 1.12 | 73.2
concentration: 52.4 (µM), S9 metabolic activation: without S9, exposure time: 24 hours | 1.66 | 1.68 | 99.8
concentration: 65.5 (µM), S9 metabolic activation: with S9, exposure time: 3-4 hours | 0.2 | 1.5 | 56.9
concentration: 65.5 (µM), S9 metabolic activation: without S9, exposure time: 24 hours | 1.7 | 1.64 | 80.1
concentration: 81.9 (µM), S9 metabolic activation: with S9, exposure time: 3-4 hours | 0.28 | 2.32 | 67.3
concentration: 81.9 (µM), S9 metabolic activation: without S9, exposure time: 24 hours | 1.78 | 1.54 | 91.5
concentration: 102 (µM), S9 metabolic activation: with S9, exposure time: 3-4 hours | 0.32 | 1.36 | 63.6
concentration: 102 (µM), S9 metabolic activation: without S9, exposure time: 24 hours | 1.94 | 2.1 | 83.2
concentration: 128 (µM), S9 metabolic activation: with S9, exposure time: 3-4 hours | 0.36 | 1.84 | 58.8
concentration: 128 (µM), S9 metabolic activation: without S9, exposure time: 24 hours | 3.48 | 1.86 | 73
concentration: 160 (µM), S9 metabolic activation: with S9, exposure time: 3-4 hours | 0.26 | 2.68 | 68.6
concentration: 160 (µM), S9 metabolic activation: without S9, exposure time: 24 hours | 4.26 | 2.36 | 59.5
concentration: 200 (µM), S9 metabolic activation: with S9, exposure time: 3-4 hours | 0.36 | 2.62 | 67
concentration: 200 (µM), S9 metabolic activation: without S9, exposure time: 24 hours | 4.04 | 2.64 | 74.5
